# Measurements from a collection of fitness landscapes (doi:10.1016/j.celrep.2020.107928).
# Over roughly 81,000 sequences, “one-hybrid fitness for binding parS DNA” has its median near -0.17; the highest 2% begin near 0.51. The list shows a part of the results.
# B1: Caulobacter ParB omega fusion; a variant is named by its letters at X, in order, B8GW30 (parent)
# chain: MESVVVGEPGMSEGRRGLGRGLSALLGEVDAAPAQAPGEQLGGSREAPIEILQRNPDQPRRTFREEDLEDLSNSIREKGVLQPILVRPSPDTAGEYQIVAGERAWRAAQRAGLKTVPIMVRELDDLAVLEIGIIENVQRADLNVLEEALSYKVLMEKFERTQENIAQTIGKSXSHVANXMRLLXLPDEVQSYLVSGELTAXHARAIAAAADPVALAKQIIEGGLSVRETEALARKAPNLSAGKSKGGRPPRVKDTDTQALESDLSSVLGLDVSIDHRGSTGTLTITYATLEQLDDLCNRLTRGI
# Variants of: B1
# Assay: one-hybrid fitness for binding parS DNA (scaled: cognate 1, non-cognate 0); higher = stronger binding
# Conditions: with parS DNA site
# Outline: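 Values were rescaled so that cognate is 1 and non-cognate is 0. Each is a fitness, the log change in a variant's read ratio to wild type from Illumina reads of plasmids before and after selection, with three replicate libraries pooled and variants under 10 reads dropped. Selection of the Caulobacter ParB libraries, four specificity codons randomised, used E. coli USO with a HIS3 reporter, site 19 bp from the promoter, on M9-minus-histidine with 0.1 mM IPTG and 5 mM 3-AT for 48 hours at 37°C.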
row,Variant,one-hybrid fitness for binding parS DNA
1,WSED,≤ 0.2
2,HGAD,≤ 0.2
3,GRTE,≤ 0.2
4,ERKR,≤ 0.2
5,ALGL,≤ 0.2
6,NTDR,≤ 0.2
7,GSIA,≤ 0.2
8,WEIL,≤ 0.2
9,DSNG,≤ 0.2
10,RYDY,0.422
11,ACPY,≤ 0.2
12,ERHV,≤ 0.2
13,TTEN,≤ 0.2
14,RKCV,≤ 0.2
15,LQAL,≤ 0.2
16,SCKS,≤ 0.2
17,DAWC,≤ 0.2
18,CNGV,≤ 0.2
19,RTLP,≤ 0.2
20,LHEV,≤ 0.2
21,QSQT,≤ 0.2
22,QYMM,≤ 0.2
23,VFTY,≤ 0.2
24,SIGM,≤ 0.2

row,Variant,one-hybrid fitness for binding parS DNA
1,HYWS,≤ 0.2
2,VVRA,≤ 0.2
3,YLAW,≤ 0.2
4,QCRL,≤ 0.2
5,DRRF,≤ 0.2
6,RLLY,0.505
7,SPKV,≤ 0.2
8,VICC,≤ 0.2
9,QSGI,≤ 0.2
10,HIHT,≤ 0.2
11,RDSV,≤ 0.2
12,PNVC,≤ 0.2
13,KREK,≤ 0.2
14,RICH,0.24
15,TMLG,≤ 0.2
16,VCLV,≤ 0.2
17,PNDN,≤ 0.2
18,PRKS,≤ 0.2
19,RCGI,≤ 0.2
20,LLNI,≤ 0.2
21,QLQW,≤ 0.2
22,NPER,≤ 0.2
23,IMAM,≤ 0.2
24,QLQQ,≤ 0.2

row,Variant,one-hybrid fitness for binding parS DNA
1,ICGY,≤ 0.2
2,GIRG,≤ 0.2
3,TAGC,≤ 0.2
4,MWRR,≤ 0.2
5,SPTW,≤ 0.2
6,ASWV,≤ 0.2
7,ADKY,≤ 0.2
8,RRNA,0.627
9,AVVM,≤ 0.2
10,MVLH,≤ 0.2
11,LPVR,≤ 0.2
12,PDEH,≤ 0.2
13,TYSY,≤ 0.2
14,MKKW,≤ 0.2
15,QVKA,≤ 0.2
16,IVPT,≤ 0.2
17,ATSL,≤ 0.2
18,PEGG,≤ 0.2
19,NGNS,≤ 0.2
20,IVEC,≤ 0.2
21,HFYT,≤ 0.2
22,GGMG,≤ 0.2
23,QQQK,≤ 0.2
24,ATAI,≤ 0.2

row,Variant,one-hybrid fitness for binding parS DNA
1,SPAR,≤ 0.2
2,AAVW,≤ 0.2
3,QCTM,≤ 0.2
4,QTFE,≤ 0.2
5,IDPL,≤ 0.2
6,RCIW,0.216
7,RSLC,0.939
8,GQLW,≤ 0.2
9,NATQ,≤ 0.2
10,QTAP,≤ 0.2
11,LNYG,≤ 0.2
12,RCRE,≤ 0.2
13,QSTR,≤ 0.2
14,RHLT,0.834
15,DAPC,≤ 0.2
16,PRLP,≤ 0.2
17,EYFS,≤ 0.2
18,YGLY,≤ 0.2
19,SIIC,≤ 0.2
20,ETSQ,≤ 0.2
21,KAPV,≤ 0.2
22,YQPP,≤ 0.2
23,PMEV,≤ 0.2
24,GYSC,≤ 0.2

row,Variant,one-hybrid fitness for binding parS DNA
1,PGHR,≤ 0.2
2,PATI,≤ 0.2
3,TLRS,≤ 0.2
4,HRAD,≤ 0.2
5,EEST,≤ 0.2
6,FQRM,≤ 0.2
7,RNPV,≤ 0.2
8,ANYT,≤ 0.2
9,TYVR,≤ 0.2
10,CFLW,≤ 0.2
11,PSVS,≤ 0.2
12,LPNT,≤ 0.2
13,AWTF,≤ 0.2
14,KLRI,≤ 0.2
15,VLAG,≤ 0.2
16,HKTL,≤ 0.2
17,PVDC,≤ 0.2
18,QPAC,≤ 0.2
19,QGKM,≤ 0.2
20,DNQG,≤ 0.2
21,LTAN,≤ 0.2
22,RDLG,≤ 0.2
23,KRIT,≤ 0.2
24,MASC,≤ 0.2

row,Variant,one-hybrid fitness for binding parS DNA
1,TSDD,≤ 0.2
2,MADT,≤ 0.2
3,VYYG,≤ 0.2
4,NHDF,≤ 0.2
5,ACPD,≤ 0.2
6,SSTA,≤ 0.2
7,YDFY,≤ 0.2
8,QLKR,≤ 0.2
9,QWAN,≤ 0.2
10,FGPG,≤ 0.2
11,CAVP,≤ 0.2
12,ITFT,≤ 0.2
13,RAKK,≤ 0.2
14,PSQK,≤ 0.2
15,RFAA,0.559
16,TCRP,≤ 0.2
17,LWGG,≤ 0.2
18,LRFC,≤ 0.2
19,VRMP,≤ 0.2
20,RTIV,≤ 0.2
21,QAHQ,≤ 0.2
22,NCLS,≤ 0.2
23,NRSE,≤ 0.2
24,RGGC,0.594

row,Variant,one-hybrid fitness for binding parS DNA
1,LAYG,≤ 0.2
2,ANSA,≤ 0.2
3,KEMS,≤ 0.2
4,GLTK,≤ 0.2
5,ADRN,≤ 0.2
6,QYVE,≤ 0.2
7,KMQS,≤ 0.2
8,SWNA,≤ 0.2
9,ICPS,≤ 0.2
10,PFNI,≤ 0.2
11,RNYT,0.66
12,KYRN,≤ 0.2
13,MPSS,≤ 0.2
14,QWKT,≤ 0.2
15,VCQC,≤ 0.2
16,ALGI,≤ 0.2
17,PLWS,≤ 0.2
18,HKTT,≤ 0.2
19,DATN,≤ 0.2
20,EPCM,≤ 0.2
21,RQNE,≤ 0.2
22,RAYH,≤ 0.2
23,RGQN,0.249
24,FEIG,≤ 0.2

row,Variant,one-hybrid fitness for binding parS DNA
1,RYPM,≤ 0.2
2,VRVR,≤ 0.2
3,THDI,≤ 0.2
4,PAGK,≤ 0.2
5,VVWY,≤ 0.2
6,SLKL,≤ 0.2
7,QCGV,≤ 0.2
8,VPPC,≤ 0.2
9,VDTE,≤ 0.2
10,TMHK,≤ 0.2
11,DGTR,≤ 0.2
12,SIRR,≤ 0.2
13,QFRV,≤ 0.2
14,ATPY,≤ 0.2
15,LGIW,≤ 0.2
16,QKCR,≤ 0.2
17,RQPT,0.387
18,AFTL,≤ 0.2
19,RCMT,0.921
20,SLSR,≤ 0.2
21,RARL,≤ 0.2
22,EKVL,≤ 0.2
23,KCGS,≤ 0.2
24,PMHL,≤ 0.2

row,Variant,one-hybrid fitness for binding parS DNA
1,HLGS,≤ 0.2
2,LETL,≤ 0.2
3,FPTC,≤ 0.2
4,NTLW,≤ 0.2
5,MYND,≤ 0.2
6,REVT,≤ 0.2
7,RPKL,≤ 0.2
8,RQLR,≤ 0.2
9,LQEM,≤ 0.2
10,ALHR,≤ 0.2
11,RVHY,0.481
12,RWTN,0.338
13,LQKG,≤ 0.2
14,TLAR,≤ 0.2
15,KVSV,≤ 0.2
16,RVHQ,≤ 0.2
17,AYYY,≤ 0.2
18,YSGD,≤ 0.2
19,NINM,≤ 0.2
20,TCRY,≤ 0.2
21,DSEM,≤ 0.2
22,LFPW,≤ 0.2
23,VAMC,≤ 0.2
24,RLPM,≤ 0.2

row,Variant,one-hybrid fitness for binding parS DNA
1,QYTF,≤ 0.2
2,TQLL,≤ 0.2
3,GVCN,≤ 0.2
4,GASL,≤ 0.2
5,GLHC,≤ 0.2
6,TLYP,≤ 0.2
7,RRNE,≤ 0.2
8,RTSL,≤ 0.2
9,TSHE,≤ 0.2
10,RHAP,≤ 0.2
11,YSAN,≤ 0.2
12,QNTS,≤ 0.2
13,LRAD,≤ 0.2
14,MTSP,≤ 0.2
15,QMSD,≤ 0.2
16,YSRP,≤ 0.2
17,SCHR,≤ 0.2
18,QMCG,≤ 0.2
19,WKIC,≤ 0.2
20,ESDN,≤ 0.2
21,ISRY,≤ 0.2
22,LHHR,≤ 0.2
23,KVGG,≤ 0.2
24,KDRR,≤ 0.2

row,Variant,one-hybrid fitness for binding parS DNA
1,PEHV,≤ 0.2
2,PVVN,≤ 0.2
3,NLFC,≤ 0.2
4,IRFG,≤ 0.2
5,QDRV,≤ 0.2
6,IAVF,≤ 0.2
7,TNRC,≤ 0.2
8,LSKF,≤ 0.2
9,VDCN,≤ 0.2
10,WKHL,0.238
11,RQWM,0.233
12,TSQS,≤ 0.2
13,TYNL,≤ 0.2
14,GQGT,≤ 0.2
15,GCTG,≤ 0.2
16,TFKS,≤ 0.2
17,REDC,≤ 0.2
18,AMML,≤ 0.2
19,ADPY,≤ 0.2
20,LGSG,≤ 0.2
21,KMDK,≤ 0.2
22,IHYR,≤ 0.2
23,IVAT,≤ 0.2
24,ALYS,≤ 0.2

row,Variant,one-hybrid fitness for binding parS DNA
1,LPIN,≤ 0.2
2,LFQC,≤ 0.2
3,TTNI,≤ 0.2
4,VSAY,≤ 0.2
5,LNGT,≤ 0.2
6,ISKR,≤ 0.2
7,QNHC,≤ 0.2
8,TFYL,≤ 0.2
9,PRGG,≤ 0.2
10,AGTA,≤ 0.2
11,FPDS,≤ 0.2
12,KSHL,≤ 0.2
13,HRKF,≤ 0.2
14,VPRF,≤ 0.2
15,ATDS,≤ 0.2
16,VESK,≤ 0.2
17,RHMV,≤ 0.2
18,TRKG,≤ 0.2
19,SAPV,≤ 0.2
20,WTGN,≤ 0.2
21,HPSQ,≤ 0.2
22,RFDA,0.46
23,TLKA,≤ 0.2
24,VGLS,≤ 0.2

row,Variant,one-hybrid fitness for binding parS DNA
1,DPPI,≤ 0.2
2,RKPC,0.488
3,PPST,≤ 0.2
4,RSWD,≤ 0.2
5,VFVT,≤ 0.2
6,YAAN,≤ 0.2
7,MYIG,≤ 0.2
8,HSLP,≤ 0.2
9,FCTR,≤ 0.2
10,GMSY,≤ 0.2
11,AWEW,≤ 0.2
12,TMTY,≤ 0.2
13,APIY,≤ 0.2
14,QHHW,≤ 0.2
15,PGGE,≤ 0.2
16,RTLL,≤ 0.2
17,APDC,≤ 0.2
18,CNPA,≤ 0.2
